Molecules are shown by their SMILES. The list shows a part of the results. The main result of the screen is listed elsewhere. These columns were measured beside it and carry no call. The list favours compounds with an active or inconclusive main result. The note in brackets gives the kind of curve behind each potency; many fits are weak. Bridge positions count the residues as written; N and C are the ends. Square brackets hold non-standard residues; d marks the D form. Peptide text beside a SMILES is read from it. * marks the point of attachment. ξ: configuration not given here. ξDab(CH2SO3H) = NC(CCNCS(=O)(=O)O)C(=O)O; Heptanoyl(6-Me) = CC(C)CCCCC(=O)*; Dab = NCC[CH](N)C(=O)O

The values below come from PubChem BioAssay (NCATS).
Tags give direction and shape of the fitted curve.

The first assay in a line: qHTS Assay for Lipid Storage Modulators (AID 1519). Particulars: Drosophila S3 cells, BODIPY lipid droplet/cell ratio, laser cytometry; measured here: cell number channel AC50; cells loaded with oleic acid. A digest of the protocol: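 Cells seeded at 5,000 per well were treated with compounds over a concentration series and loaded with oleic acid (400 uM, as added). Lipid droplet fluorescence (488 nm excitation, 500-530 nm channel) was read by laser-scanning cytometry and normalized to 20 uM Triacsin C.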
(In general: Quantitative high-throughput screening tests each substance at several concentrations.)
As to `CCCCCCCCCCCCCCCC(=O)O[C@H](CC(=O)O)C[N+](C)(C)C`, the AC50 (as a rule, the concentration giving half of the maximal activity seen) is 7.94 µM [rising, partial curve, poor fit].
Still for that read-out and setting: to `c1cncc(CNc2ccnc(-c3ccc4c(c3)OCO4)n2)c1` belongs 0.0141 µM [rising, full curve]; to `CN1CCN(c2nc(-c3cccnc3)nc3ccccc23)CC1`, 3.98 µM [rising, partial curve, poor fit]; to `CNc1nc(-c2cccc(C#N)c2)nc2ccccc12`, 0.355 µM [rising, full curve, poor fit].

The same assay, now with this note: Drosophila S3 cells, BODIPY lipid droplet/cell ratio, laser cytometry; measured here: lipid (BODIPY) channel AC50; cells loaded with oleic acid.
For the compound `Cc1noc(C)c1C(=O)N1CCC2(CCCN(C(c3ccccc3)c3ccccc3)C2)CC1`, the concentration at half-maximal activity (AC50) is 0.02 µM [rising, full curve, poor fit].
Regarding `O=c1cnc2cnc(N3CCNCC3)nc2n1CCc1ccccc1`, the concentration at half-maximal activity (AC50) was 3.55 µM [rising, full curve, poor fit].
Same read-out and setting: to `COc1cccc(-c2nc(NCCNC(C)=O)c3ccccc3n2)c1` belongs 0.794 µM [rising, full curve, poor fit]; to `O=C(Cc1ccccc1)Nc1nc2ccc(Cl)cc2c2nc(-c3ccco3)nn12`, 0.794 µM [rising, full curve]; to `COc1ccccc1-c1cncnc1Nc1ccccc1`, 5.01 µM [rising, partial curve, poor fit].
As for `CCCCCCCCCCCCCCCC(=O)NCCO`, the concentration at half-maximal activity (AC50) is 1.41 µM [falling, full curve, poor fit].
The same measure, in the same setting: as for `C=C1C(=O)O[C@@H]2C3OC3(C)CC/C=C(\C)CC[C@@H]12` (some centres undefined), the figure is 39.8 µM [rising, single point]; as for `COC(=O)[C@H]1[C@H]2CC3c4[nH]c5ccccc5c4CCN3C[C@@H]2CC[C@@H]1O` (some centres undefined), 35.5 µM [rising, single point].
For the compound `CN(C)c1ncc2nc(CCc3ccccc3)c(=O)n(Cc3ccc(F)cc3)c2n1`, the concentration at half-maximal activity (AC50) was 0.447 µM [rising, partial curve].
Same read-out and setting: to `C[C@@]12C(=O)OC(=O)[C@@]1(C)[C@@H]1CC[C@@H]2O1` belongs 8.91 µM [rising, partial curve, poor fit]; to `O=c1c(-c2ccc(F)cc2)nc2cnc(Nc3ccccc3)nc2n1C1CC1`, 0.0501 µM [rising, full curve, poor fit]; to `CN(C)c1ncc2nc(-c3ccc(Cl)cc3)c(=O)n(CCC#N)c2n1`, 3.16 µM [rising, full curve].
`COc1cc(OC)c2cc(-c3ccncc3)cnc2c1`: the AC50 was 0.891 µM [rising, full curve].
The same measure, in the same setting: to `N#Cc1cccc(-c2ccc3ncnc(N4CCNCC4)c3c2)c1` belongs 0.224 µM [rising, full curve]; to `CCNc1ncc2nc(-c3ccc(Cl)cc3)c(=O)n(C)c2n1`, 2.51 µM [rising, full curve]; to `C[N+](C)(C)CCOC(N)=O`, 35.5 µM [rising, single point].
Take `COc1ncc2ncc(=O)n(CCc3ccccc3)c2n1`: the AC50 is 2.51 µM [rising, partial curve, poor fit].
On the same count and under the same terms, to `COc1ccc(Oc2ncc3nc(C)c(=O)n(-c4ccc(OC)cc4)c3n2)cc1` belongs 1.58 µM [rising, partial curve]; to `c1ccc(Nc2ncncc2-c2ccoc2)cc1`, 1.26 µM [rising, full curve, poor fit]; to `Cc1ccccc1-c1ccc2ncnc(N3CCOCC3)c2c1`, 1.58 µM [rising, full curve].
As to `COCCn1c(=O)cnc2cnc(N3CCOCC3)nc21`, the AC50 was 17.8 µM [rising, partial curve].
Still for that read-out and setting: as for `c1nc(NCCN2CCOCC2)c2cc(-c3ccoc3)ccc2n1`, the figure is 17.8 µM [rising, partial curve, poor fit]; as for `O=C(/C=C/c1ccc(O)cc1)c1c(O)cc(O)cc1O`, 31.6 µM [rising, partial curve, poor fit].
Same read-out and setting: as for `COc1cc(OC)c2c(=O)c(-c3ccccc3)coc2c1`, the figure is 3.16 µM [rising, full curve, poor fit].
Consider `COc1ccc(C(=O)N2CCC3(CCCN(c4ncccn4)C3)CC2)cc1`, for which the AC50 is 2 µM [rising, partial curve].
Take `COc1ccccc1-c1cncnc1NCc1cccs1`: the concentration at half-maximal activity (AC50) was 0.355 µM [rising, full curve, poor fit].
Consider `COc1ccc(C(=O)N2CCC[C@@]3(CCN(Cc4nccs4)C3)C2)cc1`, for which the AC50 was 1.78 µM [rising, partial curve, poor fit].
In the case of `Cc1cnc(CNc2ncnc3ccc(-c4cccc(NS(C)(=O)=O)c4)cc23)cn1`, the AC50 is 2.24 µM [rising, full curve, poor fit].
On the same count and under the same terms, to `COc1cccc(Nc2ncc3nc(CCc4ccccc4)c(=O)n(C4CC4)c3n2)c1` belongs 0.112 µM [rising, full curve]; to `Clc1ccccc1-c1nc(NCc2cccnc2)c2ccccc2n1`, 0.112 µM [rising, full curve].
Still for that read-out and setting: to `CCC(C)C1NC(=O)C(CCNCS(=O)(=O)O)NC(=O)C(NC(=O)C(CCNCS(=O)(=O)O)NC(=O)C(NC(=O)C(CCNCS(=O)(=O)O)NC(=O)CCCCC(C)C)C(C)O)CCNC(=O)C(C(C)O)NC(=O)C(CCNCS(=O)(=O)O)NC(=O)C(CCNCS(=O)(=O)O)NC(=O)C(C(C)CC)NC1=O` (centres undefined) ({Heptanoyl(6-Me)}-[ξDab(CH2SO3H)]T[ξDab(CH2SO3H)][Dab][ξDab(CH2SO3H)]II[ξDab(CH2SO3H)][ξDab(CH2SO3H)]T; lactam 4-C; configuration not given here) belongs 35.5 µM [rising, partial curve].
Still for that read-out and setting: to `COc1cc(N)c(Cl)cc1C(=O)N[C@H]1CCN(CCCOc2ccc(F)cc2)C[C@@H]1OC` belongs 14.1 µM [rising, partial curve, poor fit]; to `N#Cc1cccc(-c2nc(NCc3cccs3)c3ccccc3n2)c1`, 4.47 µM [rising, partial curve]; to `CN=C1N[C@H](c2ccccc2)N(c2ccccc2)S1`, 7.08 µM [rising, partial curve, poor fit].
For `COc1ncc2nc(CCc3ccccc3)c(=O)n(C)c2n1`, the AC50 is 0.1 µM [rising, full curve].
Still for that read-out and setting: to `COc1ccccc1CNc1cc(-c2ccccc2OC)ncn1` belongs 1.26 µM [rising, full curve]; to `CCCCCCCCCCCCCCCC(=O)O[C@H](CC(=O)O)C[N+](C)(C)C`, 14.1 µM [rising, partial curve, poor fit].
Still for that read-out and setting: to `c1cncc(CNc2ccnc(-c3ccc4c(c3)OCO4)n2)c1` belongs 0.0891 µM [rising, full curve, poor fit]; to `CN1CCN(c2nc(-c3cccnc3)nc3ccccc23)CC1`, 2.24 µM [rising, partial curve, poor fit].
Take `CNc1nc(-c2cccc(C#N)c2)nc2ccccc12`: the AC50 was 0.447 µM [rising, full curve].
